Here are results for 54 compounds from ChEMBL document CHEMBL4888484, “Replenishing the malaria drug discovery pipeline: Screening and hit evaluation of the MMV Hit Generation Library 1 (HGL1) against asexual blood stage Plasmodium falciparum ,using a nano luciferase reporter read-out” (2022).

About 540 (0.36%) of roughly 150,000 compounds showed an effect of 50% or more. The list shows a part of the results.

What is called % Inhibition is the drop in the measured response relative to a control, in per cent.

This experiment deals with Plasmodium falciparum. The experiment can be described thus: Primary screen in NF54 nanoGlo assay, in single point, at 2uM, 72h; a lower Z score goes with more inhibition. Format: functional, Erythrocyte. As to conditions: timepoint 72 hour.
Turning to `CC(C)CNC(=O)c1cn(C2CCN(C(=O)c3ccccc3)CC2)nn1`, the “% Inhibition” value is listed as -11% and the Z score is 1.43.
The like results for `Cn1cc(C2=CCN(C(=O)NC(C)(C)C)CC2)c2cccnc21` were, in that order, 2% and -0.33.
With `Cc1n[nH]cc1CN[C@@H](C)c1ccc(N2CCN(C)CC2)cc1`, the “% Inhibition” value amounted to 1% and the Z score is listed as -0.2.
Turning to `Cc1ccc(CNCc2cccn2C)c(OC[C@H]2CCOC2)c1`, the “% Inhibition” value is listed as -14% and the Z score was determined as 1.49.
Consider `C[C@H](NCC(C)(C)C(N)=O)c1cc(Br)ccc1F`, for which the “% Inhibition” value is given as -14% and the Z score is 1.53.
Consider `CCOC1CC1C(=O)N(C)C(C)C(C)S(C)(=O)=O` (stereo not drawn), for which the “% Inhibition” value amounted to 3% and the Z score is -0.62.
The like results for `CN1C[C@@H](Cn2cnc(-c3ccccc3)c2-c2ccsc2)CC1=O` were, in that order, -4% and 0.72.
On to `Cc1cc(CNc2ccc(CCO)nc2)c2c(n1)CCCC2`, for which the “% Inhibition” value is on record as 0% and the Z score worked out at 0.
`COC(=O)c1ccc2c(c1)CCCN2Cc1cccc2cccnc12`: the “% Inhibition” value was 16% and the Z score is -2.46.
On to `COc1ccc(C)cc1NC(=O)N1CCCN(c2nc3cc(F)ccc3n3cccc23)CC1`, for which the “% Inhibition” value is listed as 3% and the Z score is recorded as -0.49.
On to `CN(C)c1cccc(-c2nc(-c3ccc4c(c3)nnn4CCC(=O)N3CCOCC3)no2)c1`, for which the “% Inhibition” value is given as -24% and the Z score amounted to 3.17.
With `O=C(O)C1CC[C@@H](c2ccccc2)N1C(=O)c1cc(C2CC2)no1` (stereo partly drawn), the “% Inhibition” value was -4% and the Z score was 0.84.
The like results for `CN(C(=O)CN1CCCC[C@@H]1Cn1cncn1)c1nccs1` were, in that order, 0% and 0.02.
`CN(C[C@H]1CCOC1)C(=O)NCCc1cccc(-c2ccccc2)c1`: the “% Inhibition” value is listed as 6% and the Z score is listed as -0.49.
For the compound `Cc1ccc(CN2CCC(N(c3ccc(F)cc3)S(=O)(=O)c3ccccc3)CC2)cc1C`, the “% Inhibition” value amounted to 0% and the Z score was found to be 0.03.
The like results for `O=C(CC[C@@H]1NC(=O)N(Cc2ccc3c(c2)OCO3)C1=O)Nc1ccccn1` were, in that order, -16% and 2.01.
As to `C[C@H]1Cc2cc(-c3nccn3Cc3nnnn3-c3ccccc3)ccc2O1`, the “% Inhibition” value was -11% and the Z score worked out at 1.45.
Turning to `CNC(=O)c1ccn([C@H]2CCCN(C(=O)Cc3coc4ccccc34)C2)n1`, the “% Inhibition” value was -22% and the Z score came out at 2.61.
The like results for `O=C([C@H](Cc1ccccc1)n1cnnn1)N1CCc2ccccc2C1` were, in that order, -13% and 1.69.
The like results for `CCOc1cc(Cl)ccc1C(=O)N(C)CCC(F)(F)F` were, in that order, -21% and 2.14.
`NC(=O)[C@@H]1C[C@H](Oc2ccccc2)CN1S(=O)(=O)Cc1ccccc1`: the “% Inhibition” value is recorded as -3% and the Z score turned out to be 0.62.
The like results for `CN(Cc1ccccn1)C(=O)NCCOc1ccc(C#N)cc1` were, in that order, -28% and 3.34.
On to `COc1ccccc1CNC(=O)c1ccc2nnc(C(F)F)n2c1`, for which the “% Inhibition” value was -32% and the Z score worked out at 3.78.
The like results for `COCC(C)(C)NS(=O)(=O)CCOc1ccccc1F` were, in that order, -9% and 1.7.
Take `Cc1c(NC(=O)[C@@H]2CCc3cc(F)ccc32)cnn1C`: the “% Inhibition” value was -11% and the Z score was found to be 1.5.
`CCOC(=O)c1cc(C(C)(C)C)n(C2CCN(C(=O)COCc3ccccc3)CC2)n1`: the “% Inhibition” value worked out at 4% and the Z score was -0.51.
For `Cc1cnccc1C(=O)N(C)Cc1nc(C(C)C)no1`, the “% Inhibition” value was -2% and the Z score stood at 0.36.
The like results for `CCC(Nc1ccc2nncn2n1)C1CC1(C)C` (stereo not drawn) were, in that order, 8% and -1.39.
Regarding `CCCn1nc(C)cc1CN(C)c1ccc(NC(=O)c2ccccc2F)cc1C(=O)O`, the “% Inhibition” value is -14% and the Z score is listed as 1.28.
Regarding `C[C@@H](c1ccncn1)N(C)Cc1ccccc1C(=O)O`, the “% Inhibition” value is -9% and the Z score is reported as 1.
`Cc1ccc(C(=O)N2CCCN(S(=O)(=O)c3ccccc3)CCC(=O)NCC2)s1`: the “% Inhibition” value is given as -23% and the Z score was found to be 2.65.
With `Cc1ccc(C)c(NS(=O)(=O)c2cc(C(=O)NCc3ccncc3)ccc2C)c1`, the “% Inhibition” value is -34% and the Z score was 4.07.
The like results for `COc1cc2ccccc2cc1C(=O)Nc1ccc(S(=O)(=O)Nc2nc(C)cc(C)n2)cc1` were, in that order, 0% and 0.02.
The like results for `Cc1ccccc1Oc1cc(NC(=O)c2ccccc2F)cc(NC(=O)c2ccccc2F)c1` were, in that order, -14% and 2.25.
In the case of `Cc1ccc(C(=O)N2CCCNC(=O)[C@@H]2CC(C)C)nn1`, the “% Inhibition” value is on record as -4% and the Z score turned out to be 0.51.
For the compound `CC(C)(C)n1[nH]c(=O)c2ccc(F)cc21`, the “% Inhibition” value is -16% and the Z score is given as 2.12.
Take `Cc1ccc(C)c(-n2ncnc2CN2CC[C@H](N(C)C)C2)c1`: the “% Inhibition” value was -2% and the Z score is on record as 0.39.
As for `C[C@H]1CCCCN1C1CN(C(=O)NCCc2ncc[nH]2)C1`, the “% Inhibition” value was -3% and the Z score was 0.47.
The like results for `COCCNC(=O)C1CC(c2ccccc2)CN(C(=O)Cc2ccccc2)C1` (stereo not drawn) were, in that order, -2% and 0.34.
For the compound `COc1ccc(C)c2sc(N(Cc3ccccn3)C(=O)CN3C(=O)CCC3=O)nc12`, the “% Inhibition” value is reported as -11% and the Z score is listed as 1.42.
In the case of `CC(C)N(CC1CCC1)C(=O)NC1CCC(Oc2cnccn2)CC1` (stereo not drawn), the “% Inhibition” value was determined as 29% and the Z score is listed as -3.26.
The like results for `N[C@H]1CC2(CCC2)Oc2ccc(Br)cc21` were, in that order, -4% and 0.62.
The like results for `COc1cc(-c2ccnc(N3CCN(S(=O)(=O)c4ccc(F)cc4F)CC3)n2)cc(OC)c1OC` were, in that order, -4% and 0.5.
In the case of `Nc1c(Br)cc2oc(-c3ccc4ccccc4c3)nc2c1Br`, the “% Inhibition” value is given as 36% and the Z score is reported as -1.3.
The like results for `CCOCC1(CNC(=O)c2ccccc2Cl)CCC1` were, in that order, -10% and 1.48.
The like results for `CC(C)COC1CCN(C(=O)CCN2CCOC2=O)CC1` were, in that order, -3% and 0.48.
Regarding `COc1ccnc(C(=O)N(c2ccc(C)cn2)C2CCCCC2)c1`, the “% Inhibition” value is -1% and the Z score is given as 0.17.
The like results for `COc1ccccc1[C@@H]1CC(c2ccc(C)c(C)c2)=NN1C(=O)CN1CCC(C)CC1` were, in that order, -3% and 0.3.
Turning to `Cn1c(C(=O)N2CC[C@@H](NC(=O)c3n[nH]c4c3CCCC4)C2)cc2ccccc21`, the “% Inhibition” value is reported as -14% and the Z score was 1.56.
For `O=C(Oc1ccc(Cl)cc1Cc1ccccc1)c1ccc(S(=O)(=O)N2CCOCC2)cc1`, the “% Inhibition” value was -6% and the Z score is recorded as 0.81.
The like results for `Cc1ccc(NC(=O)NCCCNC(=O)C2CCC2)c(C)n1` were, in that order, -13% and 1.3.
`CCn1nccc1NC(=O)NCCCNc1cccnc1`: the “% Inhibition” value is reported as -13% and the Z score is recorded as 1.68.
The like results for `CC1(C)Cc2ccsc2CN1C(=O)c1cc2n(n1)CCO2` were, in that order, 3% and -0.44.
`CC(C)n1cc(C(=O)N(CCOc2ccc(Cl)cc2)Cc2ccco2)cn1`: the “% Inhibition” value is given as -9% and the Z score was determined as 1.28.
